# Measured values reported in a collection of fitness landscapes (doi:10.1126/science.1257360).
# This is one part of the list.
# B1: PhoQ; a variant is named by its letters at X, in order, P23837 (parent)
# chain: MKKLLRLFFPLSLRVRFLLATAAVVLVLSLAYGMVALIGYSVSFDKTTFRLLRGESNLFYTLAKWENNKLHVELPENIDKQSPTMTLIYDENGQLLWAQRDVPWLMKMIQPDWLKSNGFHEIEADVNDTSLLLSGDHSIQQQLQEVREDDDDAEMTHSVAVNVYPATSRMPKLTIVVVDTIPVELKSSYMVWSWFIYVLSANLLLVIPLLWVAAWWSLRPIEALAKEVRELEEHNRELLNPATTRELTSLVRNLNRLLKSERERYDKYRTTLTDLTHSLKTPLXXLQXXLRSLRSEKMSVSDAEPVMLEQISRISQQIGYYLHRASMRGGTLLSRELHPVAPLLDNLTSALNKVYQRKGVNISLDISPEISFVGEQNDFVEVMGNVLDNACKYCLEFVEISARQTDEHLYIVVEDDGPGIPLSKREVIFDRGQRVDTLRPGQGVGLAVAREITEQYEGKIVAGESMLGGARMEVIFGRQHSAPKDE
# Variants of: B1
# Test: enrichment ratio after two sorts for PhoP signalling (ratio (wild type AVST 3.29)); higher = more functional
# Conditions: with PhoP (E. coli)
row,Variant,enrichment ratio
1,GYMP,≤ 0.25
2,PQGF,≤ 0.25
3,YEQR,≤ 0.25
4,IFGR,≤ 0.25
5,DPFK,≤ 0.25
6,YTFY,0.464
7,RHYR,≤ 0.25
8,YDFC,≤ 0.25
9,MEFE,6.04
10,EQQH,≤ 0.25
11,HAHG,≤ 0.25
12,RQSM,≤ 0.25
13,RPFP,≤ 0.25
14,TIFE,≤ 0.25
15,RSQE,≤ 0.25
16,MKAE,≤ 0.25
17,EPMP,≤ 0.25
18,TDKK,≤ 0.25
19,SMKY,≤ 0.25
20,TVSM,37.3
21,FGLY,10.2
22,WDFW,≤ 0.25
23,IVFT,≤ 0.25
24,TYLD,≤ 0.25
25,DFYP,≤ 0.25
26,RVRN,≤ 0.25

row,Variant,enrichment ratio
1,GYVY,≤ 0.25
2,FIYW,≤ 0.25
3,QMFA,≤ 0.25
4,LTTA,≤ 0.25
5,MNGN,≤ 0.25
6,QDHM,≤ 0.25
7,NFGT,≤ 0.25
8,YHCK,≤ 0.25
9,DHAV,≤ 0.25
10,DACA,≤ 0.25
11,LRFM,≤ 0.25
12,STSS,10.1
13,PILR,≤ 0.25
14,RSSI,≤ 0.25
15,REPM,≤ 0.25
16,AFES,≤ 0.25
17,NTYD,≤ 0.25
18,TVVG,≤ 0.25
19,VLCH,≤ 0.25
20,TWCV,≤ 0.25
21,HVLI,≤ 0.25
22,LTMM,2.28
23,NFQM,≤ 0.25
24,TWAQ,≤ 0.25
25,DAED,≤ 0.25
26,AQNC,≤ 0.25

row,Variant,enrichment ratio
1,IGNC,≤ 0.25
2,NRWE,≤ 0.25
3,EADN,≤ 0.25
4,LSYK,≤ 0.25
5,WYIC,≤ 0.25
6,MIVK,≤ 0.25
7,VQVI,≤ 0.25
8,YQGD,≤ 0.25
9,AAAW,≤ 0.25
10,QMCT,≤ 0.25
11,FDLQ,≤ 0.25
12,QSKR,≤ 0.25
13,WHLI,≤ 0.25
14,ADRY,≤ 0.25
15,WDRK,≤ 0.25
16,GTAM,≤ 0.25
17,RYML,≤ 0.25
18,FFWG,≤ 0.25
19,FYQM,≤ 0.25
20,LYKK,≤ 0.25
21,SIGA,0.433
22,HWIP,≤ 0.25
23,RIWG,≤ 0.25
24,DQYP,≤ 0.25
25,GNIQ,9.19
26,EAFY,≤ 0.25

row,Variant,enrichment ratio
1,SAQC,≤ 0.25
2,MYQK,≤ 0.25
3,TFGC,1.37
4,RYCG,≤ 0.25
5,PTNR,≤ 0.25
6,NDEP,≤ 0.25
7,TVES,4.64
8,WTNW,≤ 0.25
9,DFSP,≤ 0.25
10,RRFN,≤ 0.25
11,QAMV,≤ 0.25
12,EDCH,≤ 0.25
13,WDRQ,≤ 0.25
14,HPDC,≤ 0.25
15,HCTM,≤ 0.25
16,SPPH,≤ 0.25
17,LDFW,≤ 0.25
18,MPSI,≤ 0.25
19,QFMC,≤ 0.25
20,DFHP,≤ 0.25
21,QRNR,≤ 0.25
22,QHIC,≤ 0.25
23,VFNA,≤ 0.25
24,KHYT,≤ 0.25
25,HHTN,≤ 0.25
26,DCMI,≤ 0.25

row,Variant,enrichment ratio
1,VKEI,≤ 0.25
2,PSVR,≤ 0.25
3,YNHL,≤ 0.25
4,RATT,≤ 0.25
5,PYRT,≤ 0.25
6,GRAK,≤ 0.25
7,PWQP,≤ 0.25
8,RFRT,≤ 0.25
9,SWRH,≤ 0.25
10,SLMD,≤ 0.25
11,KAMM,≤ 0.25
12,ACFP,≤ 0.25
13,CKMF,38.2
14,VVID,≤ 0.25
15,QCEP,≤ 0.25
16,NPVA,≤ 0.25
17,HCMP,≤ 0.25
18,FYVS,≤ 0.25
19,PELH,≤ 0.25
20,WWSR,≤ 0.25
21,DILQ,≤ 0.25
22,HFLM,≤ 0.25
23,KGMA,≤ 0.25
24,TPSW,≤ 0.25
25,KILR,≤ 0.25
26,FNKR,≤ 0.25

row,Variant,enrichment ratio
1,TVFL,≤ 0.25
2,LGYQ,6.12
3,TYLT,0.265
4,KSKQ,≤ 0.25
5,FCAP,≤ 0.25
6,ATFW,≤ 0.25
7,RHKR,≤ 0.25
8,KKTN,≤ 0.25
9,KYAS,≤ 0.25
10,KCCE,≤ 0.25
11,SPMG,≤ 0.25
12,DAQS,≤ 0.25
13,WYKF,≤ 0.25
14,DCQP,≤ 0.25
15,QGHC,5.1
16,KKLR,≤ 0.25
17,YVYF,≤ 0.25
18,AKMC,8.12
19,MQVL,≤ 0.25
20,EGAY,≤ 0.25
21,EPGF,≤ 0.25
22,VHHH,≤ 0.25
23,TKYY,≤ 0.25
